The other results are listed elsewhere or left out.
System: PfAP2-HC AP2 domain (GST-tagged)
Test: gcPBM binding intensity (ln(normalized median fluorescence intensity)); higher = stronger DNA binding
Outline: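 Using an Agilent 4 × 180k array, primer-extended double-stranded 36-bp intergenic genomic probes and negative controls were exposed for 1 h to GST-fused P. falciparum DNA-binding domains expressed in E. coli. Binding was carried out in 1× PBS with 1% milk, 0.2 mg/ml BSA, 0.5% salmon testes DNA and 0.03% Triton X-100, and protein was detected with Alexa488 anti-GST antibody and a 488 nm scan. Binding intensity is the highest Masliner-normalised natural-log median intensity across replicate spots of either probe orientation.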

Sequence | gcPBM binding intensity (ln)
ATAAAAATTTAAAAAGAACACACGAAAGAAGGACTT [CACACA_site3929] | 9.98
TTTATAACATTTAAGAGTACAAAAAAATAAATAAAT [XGTACX_site1264] | 9.56
TAAAAGATAAAATATGCATGTGTAATTTTTTTTTTT [TGCATGCA_site955] | 9.62
GAAATATAATTTATTACACACATTTTAAAAAAATTC [CACACA_site1087] | 9.6
TTCAACGTTTTGGAATGTACAGAAAGGTATCCATCA [XGTACX_site179] | 9.44
AAAAAAAAAAAAAAAAAAAAAAAAAAAAAATATGTG [GTGCAC_negctrl_site657] | 9.38
AAAAAAATATATAAATGTACATATTGTTTAATTAAT [XGTACX_site3794] | 9.74
ATGAACTAAACTAATCGTACAATAAGTTTTATTATA [XGTACX_site4891] | 9.41
ATCTATCATATTTATGCACACAAAAATAATTAATTC [CACACA_site8837] | 9.85
TCACACACTCTCAAAAGTACAAGAAGATTATGAAGA [XGTACX_site4748] | 9.73
TATTATTTACTTATTGCACACATATAAAATATATTT [CACACA_site9017] | 9.84
AATTTACAAAAAAGAAAAAAAAAAAAAAAGATACTT [CACACA_negctrl_site1434] | 9.5
ATATGCACTCATTGTGCACACGCATATTACGAAAAG [CACACA_site2637] | 9.87
ATATTATAATGTTTTTACGAATTCGCAAATTATTAT [GTGCAC_negctrl_site470] | 9.74
TTTTTTTTTTTTTTTTTTTTTTTTTTATGATATATA [GTGCAC_negctrl_site365] | 8.91
TTAATTATCCATTTTGCACACATTTTAAAACATGAA [CACACA_site189] | 9.8
TTAAATATAATTATATGTACATATTTATGTATATAT [XGTACX_site5811] | 9.71
AGATTGTATTTATGTACACACATTTTTGGAATATGA [CACACA_site1340] | 9.76
TTGATTAAAATTAGTACACACAAAATACATGCGGGG [CACACA_site5284] | 9.95

Sequence | gcPBM binding intensity (ln)
TATATATTAAAATAATCACACACATCAATTAATGGT [CACACA_site8331] | 10.1
AAAAAATTATTAATTTGTACATAAATAACCAAAAAA [XGTACX_site2488] | 9.62
TGGGTCTCTAACTGGTGTACTATTTACATATTATAC [XGTACX_site8593] | 10
TATGATTTTAACAACTGTACAATATAATAAATCTAA [XGTACX_site2198] | 9.46
ATATATTTTTAATTACGTACTTAATAATATATACAA [XGTACX_site3285] | 9.44
TAAAAGAAAAATTAGTGTACCAATATTAACATAAAA [XGTACX_site5474] | 9.74
TCTCATAGGAAACACACACACACACCCACATATATA [CACACA_site1738] | 11
ATATATTTTTTAAATTTAAAAATTATAAAATTTATA [TGCATGCA_negctrl_site36] | 9.11
ATATATGTGCGCGTATGTACATAAAATAAATATACA [XGTACX_site2689] | 10.1
TAAATAAAAAAAAAAAGTACATACATACAAACATAT [XGTACX_site4427] | 9.81
TAATTCTAAATAAATGTACACACAAAAATAAATGTA [CACACA_site8509] | 9.81
TATATATATATTATATGTACATAAATATTTATACTC [XGTACX_site114] | 9.64
TTATAAAATTTTCTTCTATATTTTAATTATTCTCAT [TGCATGCA_negctrl_site571] | 9.54
CTATTTTATATGTGCACACATATACACCCACAAATA [CACACA_site1131] | 9.98
TTGATAAAATGGGAGAAATTAAAAAGGAAAAAAAAA [CACACA_negctrl_site1279] | 9.5
TATACAATATATTTTGGTACACAAACAAAAAAATAT [XGTACX_site2522] | 9.79
ATTAAAAGAACCAAGTGTACATTCTATATATAAAAA [XGTACX_site4260] | 9.68
GAAAAAGACAAAAGGTGTACAATATGAAATATATAT [XGTACX_site373] | 9.91
GTTCACCAAAGGTAACGTACACAAACATATATATAT [XGTACX_site1073] | 9.61

Sequence | gcPBM binding intensity (ln)
ATATTATGATCTATTTTTATATTCTATTTGATAAAT [CACACA_negctrl_site1070] | 9.59
AAAATAATAATTAAATAATAGTAAATGAAAAATAAA [CACACA_negctrl_site57] | 9.72
AAGTTTATTATATATAAATTATTATATATATATATA [CACACA_negctrl_site189] | 9.55
TATGTGTTCAGTATTGCACACACACTCCAAAATAAA [CACACA_site8018] | 10
ACTTCATTTTATAAGTGTACATAATTTGTTTATATA [XGTACX_site5453] | 9.75
ATAAATACTAGGCACACACACATATAGATTTATATA [CACACA_site7064] | 10.8
GTTGTCCCCCTTTCTATGCACACTTTAAATTATTCA [CACACA_site52] | 10
ATTCTAATAGATAGTAGTACCTATAAGTTTTCTTTT [XGTACX_site2315] | 9.54
AATTTATAAGAATATTGTACGTTTAATATATTGTAA [XGTACX_site7553] | 9.52
AAACGATCTCGATGTTGTACACATTTATATAGAAAC [XGTACX_site4373] | 9.79
TACTAAAATATATATATGCAACATGAGATATTCAAC [XGTACX_negctrl_site283] | 9.69
CATGTGTGTATAATTTGTACATATACATAATAAATA [XGTACX_site2418] | 9.98
CTAAACTAAACAAACTGTACACAAATAAAACAATAA [XGTACX_site8880] | 9.76
ATATCAACTGAATTGTATAGGCGATAAAAGAAAAAA [CACACA_negctrl_site1334] | 9.61
TTTATACATACATTCGTGCACATACGTATAACATAT | 9.84
ATATAAATATATGTATGTACACATTTTTTTTTTTTT [XGTACX_site247] | 9.68
AGAATTATAAATTATAGTACATAAAATTTTGATGTA [XGTACX_site5726] | 9.54
AACATATTGGATTTAGTGCACATATATATCATAATA | 9.66

Source: the supplement of paper PMC11417369
